To fix the notation:
B1: lpxB I26A (protein)
chain: MTEQRPLTIALVAGETSGDILGAGLARALKEHVPNARFVGVAGPRMQAEGCEAWYEMEELAVMGIVEVLGRLRRLLHIRADLTKRFGELKPDVFVGIDAPDFNITLEGNLKKQGIKTIHYVSPSVWAWRQKRVFKIGRATDLVLAFLPFEKAFYDKYNVPCRFIGHTMADAMPLDPDKNAARDVLGIPHDAHCLALLPGSRGAEVEMLSADFLKTAQLLRQTYPDLEIVVPLVNAKRREQFERIKAEVAPDLSVHLLDGMGREAMVASDAALLASGTAALECMLAKCPMVVGYRMKPFTFWLAKRLVKTDYVSLPNLLAGRELVKELLQEECEPQKLAAALLPLLANGKTSHAMHDTFRELHQQIRCNADEQAAQAVLELAQ
B2: lpxB L273A (protein)
chain: B1 chain with A26I, L273A
B3: lpxB V39Q (protein)
chain: B1 chain with A26I, V39Q
B4: lpxB L273Q (protein)
chain: B1 chain with A26I, L273Q
B5: lpxB L273W (protein)
chain: B1 chain with A26I, L273W
B6: lpxB V39W (protein)
chain: B1 chain with A26I, V39W
B7: lpxB V39A (protein)
chain: B1 chain with A26I, V39A
B8: lpxB L273D (protein)
chain: B1 chain with A26I, L273D
B9: lpxB I26Q (protein)
chain: B1 chain with A26Q
B10: lpxB L273P (protein)
chain: B1 chain with A26I, L273P
B11: lpxC L66D (protein)
chain: MIKQRTLKRIVQATGVGLHTGKKVTLTLRPAPANTGVIYRRTDLNPPVDFPADAKSVRDTMLCTCDVNEHDVRISTVEHLNAALAGLGIDNIVIEVNAPEIPIMDGSAAPFVYLLLDAGIDELNCAKKFVRIKETVRVEDGDKWAEFKPYNGFSLDFTIDFNHPAIDSSNQRYAMNFSADAFMRQISRARTFGFMRDIEYLQSRGLCLGGSFDCAIVVDDYRVLNEDGLRFEDEFVRHKMLDAIGDLFMCGHNIIGAFTAYKSGHALNNKLLQAVLAKQEAWEYVTFQDDAELPLAFKAPSAVLA
B12: lpxC L66P (protein)
chain: B11 chain with D66P
B13: accA M114W (protein)
chain: MSLNFLDFEQPIAELEAKIDSLTAVSRQDEKLDINIDEEVHRLREKSVELTRKIFADLGAWQIAQLARHPQRPYTLDYVRLAFDEFDELAGDRAYADDKAIVGGIARLDGRPVWIIGHQKGRETKEKIRRNFGMPAPEGYRKALRLMQMAERFKMPIITFIDTPGAYPGVGAEERGQSEAIARNLREMSRLGVPVVCTVIGEGGSGGALAIGVGDKVNMLQYSTYSVISPEGCASILWKSADKAPLAAEAMGIIAPRLKELKLIDSIIPEPLGGAHRNPEAMAASLKAQLLADLADLDVLSTEDLKNRRYQRLMSYGYA

Residue numbers refer to the chain shown, from its start. Names and notes keep the numbering of the source. ± gives the standard deviation of the averaged measurements. Laboratory Escherichia coli strains with one amino-acid change in an essential protein, pooled on minimal glucose agar with carbenicillin or gentamicin at twice the control MIC (plus kanamycin and chloramphenicol for the plasmids), 48 h. Fold change of barcode share against drug-free plates; higher = less susceptible. Active = above 20 in both replicates (the paper's putatively resistant). '<' = one read or none on drug, '>' = one read or none on a drug-free plate. Shares are relative, so most strains fall below 1 when a few take over. Listed are strains with at least 15 reads on both drug-free plates, and hits; most hits rest on fewer reference reads. Replicate rank correlation about 0.5. Edits are read from barcodes.

The target in the first series is Escherichia coli (laboratory strain). Description: barcode share on antibiotic plates over drug-free plates; higher = less susceptible. The conditions noted are these: antibiotic: carbenicillin; 2× MIC (3.1 µg/mL). As to the method:
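A pool of E. coli strains, each edited to carry one amino-acid change in an essential protein, was grown for 48 h on minimal glucose agar with or without antibiotic; strain barcodes were sequenced; mean of two replicates.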
Turning to B1, the “fold change of barcode share” value is 0.393 ± 0.08.

On to B2, for which the “fold change of barcode share” value was determined as 0.3493 ± 0.0026.

As for B3, the “fold change of barcode share” value amounted to 0.265 ± 0.16.

For the protein B4, the “fold change of barcode share” value turned out to be 0.43 ± 0.013.

As for B5, the “fold change of barcode share” value stood at 0.372 ± 0.031.

For the protein B6, the “fold change of barcode share” value was found to be 0.207 ± 0.15.

On to B7, for which the “fold change of barcode share” value worked out at 0.266 ± 0.1.

For the protein B8, the “fold change of barcode share” value was 0.539 ± 0.17.

Turning to B9, the “fold change of barcode share” value came to 0.441 ± 0.016.

B10: the “fold change of barcode share” value stood at 0.419 ± 0.02.

Take B11: the “fold change of barcode share” value worked out at 0.325 ± 0.035.

On to B12, for which the “fold change of barcode share” value is 0.355 ± 0.12.

In the case of B13, the “fold change of barcode share” value was 0.289 ± 0.029.

The same series, now with this note: antibiotic: gentamicin; 2× MIC (MIC 0.45 µg/mL).
Consider B1, for which the “fold change of barcode share” value worked out at 0.00488 ± 0.0037.

With B2, the “fold change of barcode share” value was 0.0039 ± 0.0024.

Regarding B3, the “fold change of barcode share” value was < 0.0133.

For the protein B4, the “fold change of barcode share” value worked out at 0.00336 ± 0.0019.

Regarding B5, the “fold change of barcode share” value turned out to be 0.0173 ± 0.011.

As for B6, the “fold change of barcode share” value came to 0.876 ± 1.2.

Turning to B7, the “fold change of barcode share” value was < 0.0119.

Take B8: the “fold change of barcode share” value is 0.00602 ± 0.0064.

B9: the “fold change of barcode share” value was 0.00914 ± 0.0066.

For B10, the “fold change of barcode share” value came to 0.00471 ± 0.0012.

As for B11, the “fold change of barcode share” value was < 0.0156.

Turning to B12, the “fold change of barcode share” value is < 0.0148.

For the protein B13, the “fold change of barcode share” value was < 0.00292.

The record behind these values is the supplement of paper PMC11876631.
